{"source": "paper PMC12136788", "binders": {"B1": {"name": "chr2:198351390:198351391:-_ENSG00000144381_ENST00000345042|hu_hu|hu_hu_hu_mus_False|28_38 (ssRNA)", "RNA": "GGGAGUUCUACAGUCCGACGAUCUCAUUCCCACCCUCCACAGAAAGGCUGCUUCUGAACUCUCAUGUGGUGACACAGCGCUACAGUCCUGAUGCUCACAGAAUAGUAGUAAAAAUGCAGUGAUUUAAGUUGAAAGCAGGACACCAACAGAGGAUUGAGCAUCA"}, "B2": {"name": "chr22:19452774:19452775:-_ENSG00000070010_ENST00000399523|hu_hu|hu_hu_hu_mus_False|1_78 (ssRNA)", "RNA": "GGGAGUUCUACAGUCCGACGAUCCUUCUCAUUGUAGUUGAUAGCAAUCACAUCUCCGGUGGUCAGACAGGCGAAGUUUCUCAAUGCAUUUUCUAAUACCGCUUUAGGGUUGGUAAUAUCCAGGAAGUCUGGGCUCUGAGGUUGCAACAGAGGAUUGAGCAUCA"}, "B3": {"name": "chr1:39494564:39494565:+_ENSG00000168653_ENST00000372967|hu_hu|hu_hu_hu_mus_True|58_78 (ssRNA)", "RNA": "GGGAGUUCUACAGUCCGACGAUCAUGCAUUCGCCUCAUCGUUUUGUACCGAAGCAAACACUCUACGAAGUCAUCGAAUUCUAUCUUGCACUCCUUUUUCGCCCGGGUCCCACCGAUCCCGUGUGCACACUCUAUCCACUCUUUCAACAGAGGAUUGAGCAUCA"}, "B4": {"name": "140292093_140292213_7305_3pUTR_ENSMUSG00000031285_ENSMUST00000033642|mouse|control|control (ssRNA)", "RNA": "GGGAGUUCUACAGUCCGACGAUCUUAAACAAAUUGUUCCUGCCCACCCCCAUCUCCACUAAGCCCAACCAAAUGACAGGAACAAUUACCUGUGGUCUCUCAUGACAUUAUAUUGCAGCUUUUCGAAGCUAUGAGCAAAUUUAACAACAGAGGAUUGAGCAUCA"}, "B5": {"name": "chr9:120860063:120860064:+_ENSMUSG00000006932_ENSMUST00000007130|mus_mus|FALSE|FALSE (ssRNA)", "RNA": "GGGAGUUCUACAGUCCGACGAUCCUGCAUGCCCUCAUCUAGCGUCUCAGGGAACAUGGCAGCUCGGACCCUCUGAGCCCUAGUCAUUGCAUACUGCCCGUCAAUAUCAGCUACUUGCUCUUGCGUGAAGGACUGGGAAAAGCCCAACAGAGGAUUGAGCAUCA"}, "B6": {"name": "123982989_123983109_2230_CDS_ENSG00000168916_ENST00000504926|human|control|control (ssRNA)", "RNA": "GGGAGUUCUACAGUCCGACGAUCCUUCAUUCCCUGCGUGCUCCCACUAUUUCCAGCUGCAGGGGCACCGACCUGCCCAGGGUGCAUGUAACUUGGAGAAUAAUAAGGAUCAUAGCUGUGGUAAUAGGGAGAAUGGGACUCUUUCAACAGAGGAUUGAGCAUCA"}, "B7": {"name": "chr11:97371553:97371554:-_ENSMUSG00000038453_ENSMUST00000107596|mus_mus|motif|central (ssRNA)", "RNA": "GGGAGUUCUACAGUCCGACGAUCCACAAUCCCAUACAAAUUCCUUCCAGGACACACUCGCGCAGUAACCAAAUUGAAGAACGGGAACUACGCAAAGCCCACGGGGGCCUUGCCUGAGCUCGUGGGGCAGCCCCUGCAUGAAUACAACAGAGGAUUGAGCAUCA"}, "B8": {"name": "chr17:7144716:7144717:-_ENSG00000170296_ENST00000577035|hu_hu|FALSE|FALSE (ssRNA)", "RNA": "GGGAGUUCUACAGUCCGACGAUCCUGGUACAGCUGACCCAUUGUGGCACUGGUGGGUGGAAUGACAUUGUUGACAAAGAAAAACAAGGCAUCCUCAGCUCGGAGAUGAAUUCGCUUCCGGAUCAAGAAGUAGAACUGACCAACCAACAGAGGAUUGAGCAUCA"}, "B9": {"name": "12959060_12959180_2252_3pUTR_ENSG00000187079_ENST00000361905|human|control|control (ssRNA)", "RNA": "GGGAGUUCUACAGUCCGACGAUCAAAAAGAGAACUAAAUACAUUUGUAUAAAGGCUGUAAAUGUCCCAUGGCAAAUGCUCUGUCUCAAUAUUUUCUACCACAAUUAGAAACAGGGCUCUGCAGAGAGAGACUUGGGUUGUUCACAACAGAGGAUUGAGCAUCA"}, "B10": {"name": "chr7:148679106:148679107:+_ENSMUSG00000025511_ENSMUST00000117634|mus_mus|motif|central (ssRNA)", "RNA": "GGGAGUUCUACAGUCCGACGAUCCCUGCCUGGAGCACCAAGAUCAUCGUGGGCCUUGAGCAGACUGGGCCUGCCCCCAACCGGGCAACCAUGCAAGGCUGGGAACCCCAUCCUGUGUGAACACUGGAAGGUAUAUAUGGAUAUCAACAGAGGAUUGAGCAUCA"}, "B11": {"name": "chr14:66974463:66974464:+_ENSMUSG00000022044_ENSMUST00000074523|mus_hu|mus_mus_mus_hu_False|28_48 (ssRNA)", "RNA": "GGGAGUUCUACAGUCCGACGAUCUUGUAGGACGACUUAUUCAGGGGAUCGGCCAGGAAGCAGGAGCAGAACAAGGACACCAGCGGGAGUUCCUUCAUCUUCUCUUUAUAGGCUGCAAGGGUCAUGUUUCUGGGAUCUGGUGGCCAACAGAGGAUUGAGCAUCA"}, "B12": {"name": "chr12:121221538:121221539:-_ENSG00000157837_ENST00000353487|hu_hu|FALSE|FALSE (ssRNA)", "RNA": "GGGAGUUCUACAGUCCGACGAUCAGGUGAGCAGGGUCUUGUUAAAUACUGGCACAUCGGGAGGAGAAGAAAAGCAAAAGCUAUCGUUGCAAGAACUGCUGUACAUAUUGUAAAAACUACUUGAACUGAGUCAAAGAAGAAGAACAACAGAGGAUUGAGCAUCA"}, "B13": {"name": "153790636_153791375_792_3pUTR_ENSG00000143614_ENST00000368655|human|control|control (ssRNA)", "RNA": "GGGAGUUCUACAGUCCGACGAUCACAACUGGAGUCUUCUGGACCACAUUCUCUUUCUGUAGCUGACUCUGUCUCAGUUUCUUUAACAGGACCAGUCGGGCUUCUUCCAAUCGUAGCUCAUCCCUCAGCUGCUUGAUAAGCUGCCAACAGAGGAUUGAGCAUCA"}, "B14": {"name": "chr1:46159212:46159213:+_ENSG00000159596_ENST00000372025|hu_mus|hu_hu_hu_mus_True|1_88 (ssRNA)", "RNA": "GGGAGUUCUACAGUCCGACGAUCUCUGAUCCCUCCCAAGAAAGCUAGGAAACUGGCUCCAUAAGCCAUCUGAGUGAAAGCUAGGACGGGGAUAUAAGACUUUGUUAUUACCAUGAGAAGUGGGGGAGCAGUAAAGGGGAUUAGCAACAGAGGAUUGAGCAUCA"}, "B15": {"name": "chr2:202488911:202488912:-_ENSG00000155755_ENST00000286196|hu_mus|hu_hu_hu_mus_False|38_98 (ssRNA)", "RNA": "GGGAGUUCUACAGUCCGACGAUCAUUGAAACAUUUUCAUAAUAUUGCAGUAGCAUUUCAGCAUUAUGUAACAAAAGCUCAAUUGUAAAUACAUGUAUAUACAUCUUAUACACUUAAAAACACGAGUGGGGAGCGCAGGCGCCACAACAGAGGAUUGAGCAUCA"}, "B16": {"name": "chr1:245006428:245006429:+_ENSG00000203667_ENST00000366528|hu_hu|FALSE|FALSE (ssRNA)", "RNA": "GGGAGUUCUACAGUCCGACGAUCGAUUGUUCAAUUGCUGCUGCUGCCGUUGUGUUUUCUUUCAGGAUCGAGGUGGGUACCUUCAUAUAAUAUCUUCUUUUUAAUUUCUUCUCUGGCAAUUCUUUCCUGGAUUCUUUGCUUUGCCAACAGAGGAUUGAGCAUCA"}, "B17": {"name": "26022335_26029148_505_CDS_ENSG00000143970_ENST00000336112|human|control|control (ssRNA)", "RNA": "GGGAGUUCUACAGUCCGACGAUCAUCUGACUGACCAUCACUGCUUUCUUCUGAACCUUCUGACAGCUCUUUCACCCCAUCCGGCACAUCUUUCUUCAAAGUAUAUACUCCCAUUCUACCUGGAACCUUAUAGAAGAUGCCCUCCAACAGAGGAUUGAGCAUCA"}, "B18": {"name": "chr11:80292881:80292882:+_ENSMUSG00000048895_ENSMUST00000053413|mus_hu|FALSE|FALSE (ssRNA)", "RNA": "GGGAGUUCUACAGUCCGACGAUCAAACUCAACUGUUUAGAAACAGCUUUAAAUUAACGGGUGGGGGUGGGGUCACCACAUCGCCUUCCCCCCAGCUCUGCAGGACAAAUGUCAUGUGCACCAGCAAGAGGCCUUAGCCCUUAGCAACAGAGGAUUGAGCAUCA"}, "B19": {"name": "chr2:27599549:27599550:+_ENSG00000115234_ENST00000233575|hu_mus|FALSE|FALSE (ssRNA)", "RNA": "GGGAGUUCUACAGUCCGACGAUCCAGACAUCCAGGCAGCUGAGAUUACAGAUCCUCAUCUCCAAUGCCCUCGAAGGCGAAAUUGCCGUGGACGGCACUGGCACUGGCAUCUGUGCUGGGACUGCCAAUCCCCCGCAAGCUCACCAACAGAGGAUUGAGCAUCA"}, "B20": {"name": "chr15:98781188:98781189:-_ENSMUSG00000072235_ENSMUST00000097014|mus_mus|FALSE|FALSE (ssRNA)", "RNA": "GGGAGUUCUACAGUCCGACGAUCCCUGUUUAGGUUAGUGUAGGUUGGGCGCUCAAUGUCGAGGUUUCUACGACAGAUAUCAUAGAUGGCCUCAUUGUCUACCAUGAAGGCACAAUCAGAGUGCUCCAGGGUGGUGUGGGUGGUCAACAGAGGAUUGAGCAUCA"}, "B21": {"name": "chr8:101271117:101271118:-_ENSG00000034677_ENST00000519449|hu_mus|FALSE|FALSE (ssRNA)", "RNA": "GGGAGUUCUACAGUCCGACGAUCGCAAUCACUGGAGCCGUGACUACAGGACGUUCUCAUGCUUUCUAAGUCUGAGCAGCUAAAUUCAGAAAAAUGACUGGAGUGGGAAUCUGCUACAGACGGCAUGCUGUCACUGAGGGAUGGCAACAGAGGAUUGAGCAUCA"}, "B22": {"name": "119673137_119674254_1728_3pUTR_ENSG00000158290_ENST00000371322|human|control|control (ssRNA)", "RNA": "GGGAGUUCUACAGUCCGACGAUCAUAUGAUCAUAAUUUUAUCCAACAUUUUCUCAAGUUCUUCAUCUGUAGCUUCUUUGUUGCCUGCACGAAGUUUUGAAUCUACAUACUUAGCUAUAAGUUCAGCUGGUUUAUUUGGUCUUUCAACAGAGGAUUGAGCAUCA"}}, "note": "This is one part of the list."}
{"target": "T1, UNK ZnF1-3 (human, UniProt Q9C0B0 31-174)", "T1 sequence": "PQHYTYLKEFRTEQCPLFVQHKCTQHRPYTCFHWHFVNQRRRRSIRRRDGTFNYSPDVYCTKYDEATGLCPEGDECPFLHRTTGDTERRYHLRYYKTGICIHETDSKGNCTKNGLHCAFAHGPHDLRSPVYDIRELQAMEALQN", "assay": "nsRBNS (natural sequence RNA bind-n-seq); RBNS binding buffer (assumed for nsRBNS): 25 mM Tris pH 7.5, 150 mM KCl, 3 mM MgCl2, 0.01% Triton X-100, 500 ug/ml BSA, 20 U/ml SUPERase-In, 4 C; UNK is unkempt and MSI1 is Musashi-1; names of the RNAs are library labels; protein concentration not given here; high values mean tight binding", "units": {"binding signal": "enrichment R"}}
{"binder": "B1", "binding signal": 1.71}
{"binder": "B2", "binding signal": 0.917}
{"binder": "B3", "binding signal": 0.663}
{"binder": "B4", "binding signal": 1.16}
{"binder": "B5", "binding signal": 1.05}
{"binder": "B6", "binding signal": 1.38}
{"binder": "B7", "binding signal": 1.09}
{"binder": "B8", "binding signal": 1.77}
{"binder": "B9", "binding signal": 1.02}
{"binder": "B10", "binding signal": 1.11}
{"binder": "B11", "binding signal": 2.35}
{"binder": "B12", "binding signal": 2.43}
{"binder": "B13", "binding signal": 0.378}
{"binder": "B14", "binding signal": 1.59}
{"binder": "B15", "binding signal": 0.861}
{"binder": "B16", "binding signal": 0.643}
{"binder": "B17", "binding signal": 1.05}
{"binder": "B18", "binding signal": 1.1}
{"binder": "B19", "binding signal": 0.814}
{"binder": "B20", "binding signal": 0.649}
{"binder": "B21", "binding signal": 1.55}
{"binder": "B22", "binding signal": 0.343}
